The record followed here is the BET-seq Pho4 binding data (Le et al. 2018).

This is one part of the list. These are noisy estimates, calculated here from bound and input reads.

The experiment has as its target T1, Pho4 (S. cerevisiae) (UniProt P07270).
T1 sequence: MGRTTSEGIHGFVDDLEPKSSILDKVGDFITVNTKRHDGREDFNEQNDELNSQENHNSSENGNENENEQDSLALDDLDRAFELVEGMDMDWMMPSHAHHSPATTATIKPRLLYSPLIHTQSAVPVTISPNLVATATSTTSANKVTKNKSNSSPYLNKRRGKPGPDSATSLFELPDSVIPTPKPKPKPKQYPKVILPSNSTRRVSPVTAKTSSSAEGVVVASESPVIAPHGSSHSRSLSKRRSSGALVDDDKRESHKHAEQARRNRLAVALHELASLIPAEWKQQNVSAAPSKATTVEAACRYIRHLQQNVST
In words: relative binding free energy (BET-seq); higher = weaker binding. Particulars: reference: library average.
In the case of AGATGCACGTGTTATT, the “relative binding free energy” value amounted to 0.01 kcal/mol.

Turning to TAGTGCACGTGCTGGA, the “relative binding free energy” value was -0.24 kcal/mol.

Regarding GTGGTCACGTGTTCCT, the “relative binding free energy” value came to 0.19 kcal/mol. Next, TGTACCACGTGCATGG: 0 kcal/mol; TCGTGCACGTGAGGGG: 0.15 kcal/mol; GCGGGCACGTGAAGGA: 0.27 kcal/mol. Regarding CGTTACACGTGTTATT, the “relative binding free energy” value turned out to be 0.17 kcal/mol. Turning to CAGTTCACGTGTGAGG, the “relative binding free energy” value is 0.31 kcal/mol. Turning to AGGTTCACGTGCTGAT, the “relative binding free energy” value amounted to 0.15 kcal/mol. Regarding GGTAGCACGTGGCTTT, the “relative binding free energy” value is -0.13 kcal/mol.

With CTGCGCACGTGTTGTT, the “relative binding free energy” value was -0.09 kcal/mol. Turning to AGGGGCACGTGGCAGG, the “relative binding free energy” value was -0.26 kcal/mol. Regarding CTGTACACGTGTGAAG, the “relative binding free energy” value turned out to be 0.16 kcal/mol. GGGTTCACGTGTAATT: the “relative binding free energy” value was 0.41 kcal/mol.

In the case of TCGGGCACGTGGTTCG, the “relative binding free energy” value is -0.05 kcal/mol. As to TGAGACACGTGGCGTG, the “relative binding free energy” value is -0.16 kcal/mol. As for TGGAACACGTGAGGCA, the “relative binding free energy” value stood at 0.23 kcal/mol. Take AGAAACACGTGTTTGG: the “relative binding free energy” value is -0.07 kcal/mol. With TTGGGCACGTGGGATA, the “relative binding free energy” value is -0.19 kcal/mol.

Turning to ATATGCACGTGTGTTA, the “relative binding free energy” value was -0.18 kcal/mol. Next, CGTGTCACGTGTAAAG: 0.3 kcal/mol. ATTTGCACGTGAAGCT: the “relative binding free energy” value is 0.24 kcal/mol. Take GTGTGCACGTGGAGGT: the “relative binding free energy” value amounted to 0.04 kcal/mol. On to CAAGTCACGTGATGTT, for which the “relative binding free energy” value is 0.18 kcal/mol.

Consider GTATACACGTGGTCTT, for which the “relative binding free energy” value was determined as 0.07 kcal/mol. Take TGGGACACGTGTAGGC: the “relative binding free energy” value turned out to be 0.06 kcal/mol. Next, AAGGGCACGTGTCTGT: -0.07 kcal/mol; GTATGCACGTGCTAGT: -0.08 kcal/mol; TTAAGCACGTGACTGT: -0.04 kcal/mol. In the case of TGGTACACGTGTAGCT, the “relative binding free energy” value is 0.02 kcal/mol. Turning to GGGAACACGTGATGTT, the “relative binding free energy” value turned out to be 0.23 kcal/mol.

For TATAACACGTGTGTTG, the “relative binding free energy” value is -0.06 kcal/mol. For the sequence TTGTTCACGTGCGAAT, the “relative binding free energy” value worked out at 0.4 kcal/mol. For the sequence GTTTACACGTGTCGAG, the “relative binding free energy” value is 0.12 kcal/mol. As for ACTGTCACGTGGGATG, the “relative binding free energy” value is -0.01 kcal/mol.

In the case of GGTCCCACGTGGTTTT, the “relative binding free energy” value was 0.06 kcal/mol. For the sequence TTGTGCACGTGGTCCT, the “relative binding free energy” value is -0.27 kcal/mol. With TCTTCCACGTGGGTGT, the “relative binding free energy” value came to 0.05 kcal/mol. Take AGTGCCACGTGTTTTG: the “relative binding free energy” value was -0.09 kcal/mol. GAGTGCACGTGTAATA: the “relative binding free energy” value was found to be 0.2 kcal/mol. Regarding AATGACACGTGCGGGT, the “relative binding free energy” value stood at 0.02 kcal/mol. Under ATGGTCACGTGTATGC stands 0.04 kcal/mol. Take CGGCGCACGTGTTAGG: the “relative binding free energy” value is -0.09 kcal/mol. Under TTGTACACGTGGTGAG stands 0.07 kcal/mol; under GAGAACACGTGAGGGA, 0.34 kcal/mol. Next, ACTGTCACGTGTGGTA: 0.09 kcal/mol; AGAAGCACGTGGAGGG: -0.06 kcal/mol; AGTTTCACGTGCGTAA: 0.17 kcal/mol. Under ACTGGCACGTGTTTTG stands 0 kcal/mol. In the case of TAGAGCACGTGATTGT, the “relative binding free energy” value stood at 0.03 kcal/mol. Under TGTGACACGTGGAAGA stands 0.07 kcal/mol; under GTAGCCACGTGGGTGC, -0.14 kcal/mol. Under GGGATCACGTGAGGCT stands 0.34 kcal/mol. In the case of TTGTACACGTGCTGGC, the “relative binding free energy” value came to 0.11 kcal/mol.

In the case of GAGGGCACGTGGGGGG, the “relative binding free energy” value is -0.14 kcal/mol.

Consider GATGACACGTGCGGGT, for which the “relative binding free energy” value is 0.06 kcal/mol. As for CTGGTCACGTGTGGCG, the “relative binding free energy” value amounted to 0.09 kcal/mol. In the case of GTTTACACGTGTCGGA, the “relative binding free energy” value is 0.19 kcal/mol. As for TTGGACACGTGTTCTG, the “relative binding free energy” value is 0.04 kcal/mol. With GTGTTCACGTGTCAGA, the “relative binding free energy” value came to 0.3 kcal/mol. Regarding GGGTGCACGTGAGGAG, the “relative binding free energy” value is 0.3 kcal/mol.

Turning to AATTTCACGTGCAGAT, the “relative binding free energy” value is 0.29 kcal/mol. Under TTAGTCACGTGTTGTC stands 0.16 kcal/mol; under GATTGCACGTGGGATG, 0.02 kcal/mol.

Consider TGGATCACGTGGTTAC, for which the “relative binding free energy” value came out at 0.13 kcal/mol. Consider TATGGCACGTGGTCCG, for which the “relative binding free energy” value was -0.18 kcal/mol. Regarding GAGTTCACGTGATTTG, the “relative binding free energy” value amounted to 0.5 kcal/mol. Under GGAGCCACGTGGTTGG stands -0.06 kcal/mol; under CGGTTCACGTGATTGG, 0.39 kcal/mol. In the case of TAGGTCACGTGATTTG, the “relative binding free energy” value is 0.32 kcal/mol.

Regarding TGGGGCACGTGTGGTG, the “relative binding free energy” value is -0.07 kcal/mol.

Turning to TACGGCACGTGCGTAG, the “relative binding free energy” value was -0.01 kcal/mol. Next, GTGTTCACGTGAATAA: 0.3 kcal/mol; TGAGTCACGTGAGTGT: 0.27 kcal/mol. For the sequence TTGGACACGTGTCTAG, the “relative binding free energy” value was 0.04 kcal/mol. Regarding AGTGCCACGTGGTAAT, the “relative binding free energy” value was -0.08 kcal/mol. Take GTATCCACGTGGGTGG: the “relative binding free energy” value was -0.12 kcal/mol.

For the sequence TTGAACACGTGAAGGC, the “relative binding free energy” value is 0.55 kcal/mol. For the sequence CTTATCACGTGATTTT, the “relative binding free energy” value was 0.24 kcal/mol. Under ATTGTCACGTGCGGTC stands 0.06 kcal/mol. Consider GGTCTCACGTGGGGGT, for which the “relative binding free energy” value is 0.11 kcal/mol. Next, ACTCTCACGTGGGGGG: 0 kcal/mol; CGGAACACGTGAGTGG: 0.07 kcal/mol; TGCGTCACGTGCGAGG: 0 kcal/mol. As to ATGTGCACGTGAGAAT, the “relative binding free energy” value worked out at 0.23 kcal/mol.

For TTCTTCACGTGTCGTT, the “relative binding free energy” value worked out at 0.13 kcal/mol. Next, GGCGCCACGTGAGTGT: 0.18 kcal/mol. For the sequence TTAGGCACGTGATTTG, the “relative binding free energy” value is -0.07 kcal/mol. In the case of CATTCCACGTGTTGTT, the “relative binding free energy” value was determined as 0.19 kcal/mol. Consider GCGGGCACGTGCAGTT, for which the “relative binding free energy” value came to 0.06 kcal/mol. Turning to TAAGGCACGTGTTTAG, the “relative binding free energy” value is -0.22 kcal/mol. On to TGGGTCACGTGAACGT, for which the “relative binding free energy” value came to 0.22 kcal/mol. For GGTGTCACGTGTGGGC, the “relative binding free energy” value amounted to 0.21 kcal/mol. Turning to ATTGCCACGTGGATGG, the “relative binding free energy” value was -0.13 kcal/mol.

With GTGTACACGTGGGTAA, the “relative binding free energy” value is -0.05 kcal/mol. As to GGCATCACGTGGATTG, the “relative binding free energy” value was 0.11 kcal/mol. Turning to GGTGACACGTGTATTA, the “relative binding free energy” value stood at 0.17 kcal/mol. Consider AGGATCACGTGGAGGC, for which the “relative binding free energy” value was determined as 0.12 kcal/mol. For the sequence TGCACCACGTGGGGTG, the “relative binding free energy” value was -0.29 kcal/mol. For the sequence GTTTACACGTGGCGCG, the “relative binding free energy” value stood at 0.05 kcal/mol. Turning to GTTATCACGTGTTATA, the “relative binding free energy” value amounted to 0.18 kcal/mol.

As for GTATTCACGTGTTGGT, the “relative binding free energy” value was determined as 0.29 kcal/mol. In the case of AATTCCACGTGTGGTG, the “relative binding free energy” value was 0.18 kcal/mol. Consider GTGCACACGTGTGTGA, for which the “relative binding free energy” value was determined as 0.09 kcal/mol. Under ATGATCACGTGGAGGA stands 0.27 kcal/mol. For TATAGCACGTGTGCGT, the “relative binding free energy” value was -0.07 kcal/mol. Consider TTTAGCACGTGGCTGT, for which the “relative binding free energy” value is -0.16 kcal/mol.

Take ATATGCACGTGGCGAG: the “relative binding free energy” value was -0.07 kcal/mol. As to GGTATCACGTGTCGGT, the “relative binding free energy” value amounted to 0.31 kcal/mol.

Take ACAGTCACGTGGGTTA: the “relative binding free energy” value is -0.14 kcal/mol. For GGAGGCACGTGATATA, the “relative binding free energy” value was found to be 0.17 kcal/mol.

Regarding GCAGACACGTGGGGGG, the “relative binding free energy” value was -0.01 kcal/mol.

Turning to TTGGACACGTGGCCGT, the “relative binding free energy” value was -0.06 kcal/mol.

Take GAGAGCACGTGTATTT: the “relative binding free energy” value turned out to be 0 kcal/mol. Turning to GAAAGCACGTGCGTGG, the “relative binding free energy” value is -0.02 kcal/mol.
